Test results published in the supplement of paper PMC10126150.
Sequences with one replicate were seen in a single cluster, so their values are uncertain.

Test system: ATP
Assay: switch fluorescence ratio, 500 uM ATP over buffer (Cy3 cluster intensity, sum of 5 cycles each) (fold (ratio)); higher = stronger signal-on switching upon ATP binding; sequences stand for … in TCGTCGGCAGCGTCAGATGTGTATAAGAGACAGTTTTTTTTTTTTTTTTTTTTTTTTT…TC
Conditions: aptamer strand: ATP DNA aptamer (quencher-CACCTGGGGGAGTATTGCGGAGGAAGG + anchor), 100 nM annealed; ATP concentration: 500 uM; one replicate
Method in brief: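 Switching-strand clusters labelled with Cy3 on a modified Illumina MiSeq flow-cell were annealed to 100 nM quencher-labelled ATP aptamer, imaged in selection buffer, and re-imaged after 15 min with 500 uM ATP at 22 °C. This was done over five cycles with NaOH stripping and re-annealing in between. The fluorescence ratio is summed target-cycle over summed buffer-cycle Cy3 intensity per cluster, averaged per switch-domain sequence, excluding clusters outside 100-1000 RFU.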
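Further: ATP exposure 15 min at 22 °C before imaging.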

Sequence | switch fluorescence ratio
GAGTGTGGTT | 1
CTTTGAGTCC | 1.03
TAGCTCGCGT | 0.984
CTGTGTACGG | 1.03
CGACAGACTC | 1.31
ACGCAGACTA | 1.88
CCGGCGCCTT | 1.12
GGAGGGCAGC | 0.947
TGAAGTTAAA | 1.02
GCCTAAGCGT | 0.989
TGGTAGTGGC | 0.981
GAAGACAGTT | 1.04
TATAAGTTA | 0.986
TAAGATCCA | 0.987
CATCCATCGC | 1.26
CGGGAGGCTG | 0.975
GATGTGAT | 1.16
CCGAAGAATT | 1.6
GCCTATGTTT | 0.981
GGAGTTATTG | 0.973
GAAGCTGCGA | 1.04
CACCGTTGA | 1.07
GTCTGAACAG | 0.986
TCTGTCTCGA | 1
TAACAACCCA | 1.07
CGCAGGCGAT | 1.05

Sequence | switch fluorescence ratio
AAAAACTTAG | 1.19
GACAGATATT | 0.995
CAGTTTAAT | 1.01
CCGTGTAATC | 1.35
GGGGGTTCAC | 1.02
ACGGAGTTG | 1.01
AGCTTATGCC | 0.982
TACATCACAA | 1.33
GTCTAAGTAT | 1
CAACACATTC | 1.25
TAAGGCTAAC | 1.03
AGAGGTATTT | 1.05
TAGCGGACGC | 0.999
GTCTTATACG | 0.993
GAGGATGGAA | 1.2
GGGATTTGAG | 0.945
AAAGATGC | 1
AGAGGACCAC | 0.993
CCCAGGCCCA | 1.19
GGTACTCCG | 1.06
TTTTGAGAAC | 1.01
CCGTGAAAGA | 0.98
AACTAGGGTA | 0.983
CCAAATCTCA | 1.06
ATTCAGGGCC | 0.987
CGCTGAGAGC | 1.04

Sequence | switch fluorescence ratio
ATGCGTGTCT | 0.989
ATTCACAGTG | 1.03
TTTTAGCGG | 1.01
CTTGGCCCGT | 1.01
GCGAACGCGA | 3.53
TTATGGGCCG | 0.978
AAGTATTCCT | 1.01
GAAGCGTATT | 1.02
TTGAAGTAAT | 1.31
GCAGTGCCGA | 1.02
GTTGTATGGG | 0.949
GATTGACCTG | 1.06
GCGGCACAGG | 1.33
TATACGCGCA | 1.03
AAGTCAAAAG | 0.963
ATAAAATCAT | 0.991
TTACCGAACA | 1.07
ACAGGTGAAT | 1.68
ACAAGTGATA | 0.973
TCGCCCATGA | 0.976
ACAGCCAATG | 1
GTAAGACGGA | 0.998
ACCATCCAA | 1.01
TGAGACTTGA | 0.966
CGAAGATAAT | 0.974
CCATTAAAAC | 1.05

Sequence | switch fluorescence ratio
TCAGATGTAT | 0.989
TCGAATATAG | 0.986
CTACCTTCTT | 1.3
GGTTTCTCTA | 0.978
ACGATACGGC | 1.51
GTATTAGTGG | 0.98
AGGACGACCT | 1.05
TAGGACGCCC | 0.991
GCTTGTAATA | 1.03
CTGGGCCTTC | 1.08
TTTCTAATAG | 1.03
GAGTTACGGA | 1.06
GAAGCAAGTT | 1.6
TTAATGCTTA | 0.995
TTTAAGCCTT | 1.15
TTTACCTACT | 1.33
GCGTGAGTC | 1.03
AGGACTCAGG | 0.969
TGAAAAGATT | 0.964
GTTATCCTGA | 1.01
CTTTGTAACA | 0.98
GTGAGAG | 0.989
TCATTTCTGG | 0.98
TTATTACCG | 1.03
ACAGAAGGAT | 1.04
CTGCTCAGTA | 0.992

Sequence | switch fluorescence ratio
CCTAAAGAAA | 1.38
GCGTTGGGCG | 0.995
AGAAGGGGTG | 0.993
TCAAGATTAG | 0.976
TAAACAGCCC | 1.05
GGAATTGAGA | 1.04
AACGAATAGT | 0.995
GCGCGAGTAC | 1.89
GCGTTTTAG | 0.967
GGTGATGCAT | 1.05
AGGCCGTAGA | 1.02
GAGACGCTTG | 0.961
TTACATTCCT | 1.41
GCAATTCGGT | 1.23
AGCTGACGGG | 1.04
GAGAGAGTG | 0.976
AGGGCTATGA | 0.975
CGCGATATGC | 2.85
TCGTTTCTT | 0.988
CGCGGGTAG | 1.02
TAGACGGATA | 0.994
AGTACGAGAC | 1.14
ATCGAGGGTG | 1.02
TGGTTCGCGC | 1.09
AGGGAG | 1.02
CCAGCCTAGA | 0.95

Sequence | switch fluorescence ratio
CTCTGATTGT | 0.964
AGATAATGTT | 0.97
TAAGTTACGA | 1.11
CTTGATAGTC | 1.01
CCTATTTGGG | 0.983
TAATATGAA | 0.981
AGTCAGCCTA | 1.04
GAATTTAGGA | 1.04
GGTGAGTAAC | 0.93
TAGGACCCCT | 1.07
AGGCGGCCTA | 1
GAGATATAGT | 0.969
CCGGCAAGCA | 4.86
ATTCTTGATG | 1.02
CAGTGCGCGA | 1.68
GCATCCGTAC | 3.95
TTCGCGCTGG | 0.979
ACAGAGATCA | 1
GGAGTTAGAA | 0.994
AGCTATATTC | 1.33
CTGCTTTAA | 1.02
ACATATCAAA | 1.05
ACGTCTCGAA | 1
TGGTATCCAG | 0.986
AAATGAAACG | 1.02
GTCCCACGGT | 1.11

Sequence | switch fluorescence ratio
TTGGGTACAG | 1.02
TATCAATTGT | 0.99
ATAAACGG | 1.04
CCTTATATAG | 1.08
TTATACCGGC | 1.02
ACTGGGTGTT | 1.11
GATTTATTAT | 1
AAGTACAACC | 1.25
AATTATGCAT | 1.02
TCTCGGGCTA | 1.08
AGTGTAACAG | 0.978
ATAGAAAGGT | 1.03
TTTTATACTG | 1.06
ATTTAGTTG | 0.977
AGGTGTCTTT | 1.01
GTCCGGGAGG | 0.974
GTATGGACTA | 0.996
TGAGGAAATA | 1.07
GATGAACAGG | 1.04
TCTAGACAGG | 1.04
TGGCGTTTGT | 0.995
ATAACTGGCA | 0.968
GCATATTTGG | 0.965
CGCTCTTTCA | 0.979
CTGCATTTTT | 1.71
CGCCTATTAG | 1.07

Sequence | switch fluorescence ratio
TGCGCTATCC | 1.94
TATAGAGGGC | 1.03
ACATCCTATT | 1.03
CATGTCGGGA | 0.999
AGAATACAAC | 1.07
TTTGAACATG | 0.953
CGCCGAAAGA | 2.2
CATGACGG | 1.03
CCATCCTGCT | 1.09
GCTGTATCTG | 1.06
TTGAACGCTC | 1.85
GAAGCTTGCC | 1.05
CTCATCATTT | 0.997
TTAATCCTAA | 1.01
ACACGGCGTG | 0.996
GGGGATTGAC | 1.12
GATTGCCACC | 1.06
TCGTCGATGA | 1.03
GCGCTTATGG | 1
